Results taken from the supplement of paper PMC11417369.
± gives the standard deviation of the averaged measurements. Some of the results follow.

Test system: PfAP2-EXP AP2 domain (GST-tagged)
Test: gcPBM binding intensity (ln(normalized median fluorescence intensity)); higher = stronger DNA binding
Summary of the method: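 Probes on an Agilent 4 × 180k array were primer-extended, double-stranded and 36 bp long, taken from intergenic genomic regions, with negative controls added. GST-tagged P. falciparum DNA-binding domains from E. coli, about 25 μg on average, were applied to the array for 1 h in 1× PBS containing 1% milk, 0.2 mg/ml BSA, 0.5% salmon testes DNA and 0.03% Triton X-100. Binding intensity, obtained after Alexa488 anti-GST antibody detection and a 488 nm scan, is the highest Masliner-normalised natural-log median intensity across replicate spots of either probe orientation.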

In order of falling “gcPBM binding intensity (ln)” value:
1. CTGAATGTATATATTTGTACATATATATATATATAT [XGTACX_site5557]  10.4 ± 0.22
2. TTTTCATTTTTCTTTACACACATATATATATATATA [CACACA_site2236]  10.2 ± 0.31
3. AGTATACACAGACACACACACACATATATATATATA [CACACA_site8510]  10.2 ± 0.23
4. AAAAAAAAAAAAAATACACACACATATATATATATA [CACACA_site8698]  10.1 ± 0.26
5. TATATATATATGCTACGTACATATATATTATATATA [XGTACX_site7894]  9.79 ± 0.17
6. ACCTTATAAAAAAAAAGTACATATATAAATAATAAA [XGTACX_site4338]  9.71 ± 0.37
7. TATATATATATTTTTTGTACATATTATATAATATAC [XGTACX_site5187]  9.46 ± 0.35
8. AACGGGGGTAGTTTTATGCACACGTTTATTAATGCT [CACACA_site3173]  9.35 ± 0.37
9. GTATTCTTCTCTCCGTGTACATATATATGTATATAT [XGTACX_site803]  9.26 ± 0.35
10. TATTTATGCACGCGTGCACACACATATGAAAAAAGG [CACACA_site9090]  9.23 ± 0.11
11. TTTTTATGGACTATGGTGCATTATATATAAATGAAA [GTGCAC_site9557]  9.2 ± 0.48
12. TATTTTTTTAGATATACATGCAAAAACAGAAGAAAT [TGCATGCA_site283]  9.12 ± 0.35
13. ATTATTTTGTTTATTACATGCAGGTGTATATTACAG [TGCATGCA_site723]  9.12 ± 0.4
14. TTTTTCTTCTGCATTATGCACACTATAATTCGTTAA [CACACA_site2837]  9.11 ± 0.38
15. AAAAAAAAAAAAAAAAAAAAACACCCAAAAAAATAT [XGTACX_negctrl_site210]  9.07 ± 0.085
16. AATTGCTAATGGTACGAACACACATATAAAGATGCA [CACACA_site8634]  8.97 ± 0.42
17. AGTAAACGATGATGTTGTACAAAAAGGATAATTTAA [XGTACX_site6698]  8.96 ± 0.41
18. TTAAATACTAAAAAGTGTACACATACATAAAAAATT [XGTACX_site6261]  8.91 ± 0.17
19. TAAAAATAGGAGTGTGTGCACATAAATTATATACTA [GTGCAC_site9405]  8.9 ± 0.18
20. CTTTCATATGTTTTAACACACACGCATATATTATAG [CACACA_site7033]  8.9 ± 0.39
21. GTAAACAATTATGAACGTACATAAAATAAATGAACA [XGTACX_site7159]  8.89 ± 0.43
22. AATACCGGAAAGCAAACACACATTTGAAAACCATAA [CACACA_site7761]  8.88 ± 0.48
23. AGCTATGTATTCTACACACACATACACCCATATATA [CACACA_site5827]  8.88 ± 0.47
24. TGAACTTTAAACCCTGAACACACACTAATACACCCA [CACACA_site7970]  8.88 ± 0.47
25. AAGAATGTTAACGTTGCACACAAAAAAAAAGTATAC [CACACA_site8763]  8.88 ± 0.46
26. AAAGTACAAGTATAATCACACGTGTCTATTATATAC [CACACA_site4507]  8.86 ± 0.54
27. ACACATACATACATATGTACATATATACATATATAC [XGTACX_site5559]  8.84 ± 0.26
28. AAATTTATGAACCTAGTGCAGAAATTAAAAAGATGA [GTGCAC_site9396]  8.84 ± 0.23
29. TATAGATACCTATACACACACACACGGACATATATA [CACACA_site7585]  8.84 ± 0.48
30. TATATATTTATATATGCATGTACATTTTTATTTATT [TGCATGCA_site1048]  8.82 ± 0.25
31. TGTCTTTTTAAGTTTTGTACATAAATATATTTCAAA [XGTACX_site427]  8.81 ± 0.29
32. AAACCGTGGGAGCACACACACACACGCGCACATATA [CACACA_site6288]  8.78 ± 0.52
33. TCAAATAATTTGTTGACACACACACCCACATACATA [CACACA_site8717]  8.76 ± 0.51
34. TAATAAATAAATGACACACACACACCCAAAAAAAAA [CACACA_site2623]  8.75 ± 0.35
35. ATAGTTTATACAAATAGTACGCACAAAAAAAAATAA [XGTACX_site6727]  8.74 ± 0.38
36. GTAACCCACCAAAATGCACACATTAAAAAAAAAAAA [CACACA_site1046]  8.73 ± 0.59
37. TGCATAAATTTATGCACACATAAAAAAAAAAAAAAA [CACACA_site2923]  8.73
38. TATAATGATGATGATAGTACGTATGAGTTCAAAAAA [XGTACX_site3656]  8.71 ± 0.43
39. ATTCAATATTTATACACACACACTTTTAATAATTAA [CACACA_site7725]  8.7 ± 0.38
40. CACATACATAAATACACACACAAAATAATAAAATAA [CACACA_site5304]  8.7 ± 0.36
41. CATAAATGTCTCACATGTACATATGCATTTTTAAAA [XGTACX_site3194]  8.69 ± 0.28
42. TTTTCGATATGCTTTTTTTTTCTACTGTCTTTTTAA [TGCATGCA_negctrl_site54]  8.69 ± 0.45
43. AATATAAGGATATATACACACATAAATACATACATA [CACACA_site7859]  8.67 ± 0.31
44. AATATGTCATATATGTGTACATATGCACAGATATTA [XGTACX_site951]  8.63 ± 0.22
45. ATATTTTTTACTATTACACACAAGGGATTATTATTT [CACACA_site3915]  8.62 ± 0.44
46. GATATGAATATAGGTTGTACTATATATAAAGTATGT [XGTACX_site1877]  8.61 ± 0.3
47. AAACAATAAAAGATTACACACATATATAGCATATAT [CACACA_site1698]  8.61 ± 0.35
48. TCATTCAGTTTTATCACACACAATCAAACATATATA [CACACA_site2742]  8.6 ± 0.47
49. TTATTAACCTAAATTAGTACATATAATATAAAAAAT [XGTACX_site8661]  8.59 ± 0.42
50. TACAAAAAAGAAGATATTCAAACAAAAACAAAAAAA [CACACA_negctrl_site1126]  8.57 ± 0.49
51. GAGTATATTTATATTGCACACAATTTTTTTATTTTT [CACACA_site2644]  8.56 ± 0.18
52. ATAAAAAGAAATCCAATACACACCTTCAAAATGGGT [CACACA_site1622]  8.55 ± 0.67
53. GATTACAAAAAAAATACACACAAAAAAAAAAAGGAA [CACACA_site2096]  8.54 ± 0.58
54. ATATAAAACAACGGGTGTACAAAAAAATAAATAATA [XGTACX_site4094]  8.535 ± 0.064
55. TTAAAATCTTGAAAAGTGCATTATCATTTTGTAACG [GTGCAC_site9447]  8.545 ± 0.021
56. TATATATAAACAAAATGTACATATTTGAGATACCCT [XGTACX_site2195]  8.53 ± 0.23
57. TGTTTCTAAAAAAAAGGTACACATATATATAATATA [XGTACX_site3217]  8.52 ± 0.26
58. TTGAGCATAAAATTTGGAAACCTCAATCGGACAAAA [GTGCAC_negctrl_site84]  8.51 ± 0.38
59. TATACATAATATATATGTACATATATTCTTTATTTT [XGTACX_site4565]  8.51 ± 0.33
60. TATCATAATAGACACAGTACATATATGTCTTAAATT [XGTACX_site8775]  8.48 ± 0.47
61. AAAGAAATGAAATATACACACATACCTATATACATA [CACACA_site7817]  8.48 ± 0.29
62. TATATATTATATATATGTACATATTTATTTTATTTT [XGTACX_site6989]  8.47 ± 0.3
63. CTTTCAATTTTTTTCTGTACCAATAAAAAATATAAA [XGTACX_site2120]  8.46 ± 0.3
64. TTGAAATGCATGAACACACACAGCTATAAATGCATA [CACACA_site968]  8.46 ± 0.47
65. CAATACTATTATTATAGTACGTATAAAATTATATAT [XGTACX_site4950]  8.44 ± 0.21
66. TCAACATTCATTGGAAGTACTCACTCCCATATAATA [XGTACX_site5211]  8.43 ± 0.27
67. ATATCAAATTCTGAAACACACAAAATTACACCTCTA [CACACA_site169]  8.43 ± 0.62
68. TTTATCAAAATAAATGCACACAAATTGCACATATCT [CACACA_site8281]  8.415 ± 0.078
69. GAAAGACAAATTGTGACACACACAAAAAAAAAAAAA [CACACA_site9241]  8.41 ± 0.57
70. TAATATTATATAAATTGTACTATTTTTTCCTTATTC [XGTACX_site5314]  8.41 ± 0.54
71. ATAATGTTTTATAATACACACATTATATATATAAAT [CACACA_site6101]  8.4 ± 0.37
72. TATATATAATATTGCACACAAAATTAAAAGTAAATA [CACACA_site19]  8.4 ± 0.28
73. ATTATGTTAATAATATGTACATATATCTACATATAT [XGTACX_site7978]  8.37 ± 0.33
74. TTTTTTTTTTTTAATTAACACACATAAATATATATA [CACACA_site9077]  8.37 ± 0.42
75. ATATTTATGTAAAAAAGTACATACAATTATATATGT [XGTACX_site3750]  8.35 ± 0.28
76. ATATAAGTTATTTTATACAAAAAAAAAAAAAAAAAT [CACACA_negctrl_site1190]  8.34 ± 0.46
77. AATATCTTAGTGGATACACACATATAAATGTGTATT [CACACA_site6367]  8.31 ± 0.33
78. AAAATATTATCTAATTGTACTTATATAACTATATAT [XGTACX_site5699]  8.27 ± 0.35
79. ATACTAAGGAGAAAAGAAAAGTGAATTTATTCTATA [CACACA_negctrl_site1792]  8.27 ± 0.43
80. ATATATATAATAAATACACACATTTATATAGATAAA [CACACA_site3254]  8.27 ± 0.28
81. TTACTTAATAGACACACACACAAAAAAAAAAAAAAA [CACACA_site6572]  8.21 ± 0.49
82. TTTTTATTTTTTATGTAATTTAAATAATTATTCAAA [CACACA_negctrl_site1549]  8.15 ± 0.4
83. CAAAAATATTATTATAGTACATAAATAATATATTTT [XGTACX_site6902]  8.15 ± 0.42
84. AAACATTTATCAATGAATCTTTTAATAAGTGTAAAG [XGTACX_negctrl_site80]  8.12 ± 0.61
85. AAAAAATTTCAAATGACATAATGTAATTTCCCTTTT [GTGCAC_negctrl_site673]  8.1 ± 0.5
86. CAACTCTTATTTAATTATATGAATTAATTTATATGA [CACACA_negctrl_site200]  8.09 ± 0.37
87. TTTTTAATATATAAAGATAATAATAAATAAAATTCA [CACACA_negctrl_site657]  8 ± 0.38
88. TATATGTTAATTTTTTTTTTTTTTTTTTTTTTTATA [CACACA_negctrl_site62]  7.92 ± 0.49
